These are yes or no findings as the source states them, for the method shown. Binding seen in cells or lysates may run through a third protein. Some results given as binding are weak or reduced against the parent protein; the word gives no strength. For some assays here: Where a sequence is shown, tags or fusion partners need not be part of it.
Columns and labels:
[1] = molecular target: L1-RP ORF1p with a tandem FLAG-HA tag fused to its C-terminus, expressed from pc-L1-1FH (human) (UniProt Q9UN81); assay: co-IP; pc-L1-1FH (ORF1p-FLAG-HA) expressed in 293T cells with tagged test proteins or with endogenous ZAP; IP of L1 RNP complexes on α-FLAG agarose without RNase; Western blot
[2] = molecular target: L1-RP ORF1p with a tandem FLAG-HA tag fused to its C-terminus, expressed from pc-L1-1FH (human) (UniProt Q9UN81); assay: co-IP; as a1, IP reaction in the presence of 50 μg/ml RNase
[3] = molecular target: ZAP-L-FL (FLAG-tagged ZAP-L) (human) (UniProt Q7Z2W4); assay: co-IP; ZAP-L-FL cotransfected with tagged test proteins in 293T (or endogenous MOV10); IP on α-FLAG agarose in the presence or absence of RNase (legend: 50 μg/ml; methods: 25 μg/ml RNase HC and 25 μg/ml RNaseA); Western blot
[4] = molecular target: ZAP-L-FL (FLAG-tagged ZAP-L) (human) (UniProt Q7Z2W4); assay: co-IP; ZAP-L-FL and pc-L1-RP (untagged ORF1p) expressed in 293T cells; IP by the FLAG tag of ZAP-L-FL
[5] = molecular target: T1, FLAG-tagged MOV10 (human) (UniProt Q9HCE1); assay: co-IP; not told for this result (no figure cited); the sentence follows the co-IPs of ZAP and MOV10 of Fig 4C
T1 sequence: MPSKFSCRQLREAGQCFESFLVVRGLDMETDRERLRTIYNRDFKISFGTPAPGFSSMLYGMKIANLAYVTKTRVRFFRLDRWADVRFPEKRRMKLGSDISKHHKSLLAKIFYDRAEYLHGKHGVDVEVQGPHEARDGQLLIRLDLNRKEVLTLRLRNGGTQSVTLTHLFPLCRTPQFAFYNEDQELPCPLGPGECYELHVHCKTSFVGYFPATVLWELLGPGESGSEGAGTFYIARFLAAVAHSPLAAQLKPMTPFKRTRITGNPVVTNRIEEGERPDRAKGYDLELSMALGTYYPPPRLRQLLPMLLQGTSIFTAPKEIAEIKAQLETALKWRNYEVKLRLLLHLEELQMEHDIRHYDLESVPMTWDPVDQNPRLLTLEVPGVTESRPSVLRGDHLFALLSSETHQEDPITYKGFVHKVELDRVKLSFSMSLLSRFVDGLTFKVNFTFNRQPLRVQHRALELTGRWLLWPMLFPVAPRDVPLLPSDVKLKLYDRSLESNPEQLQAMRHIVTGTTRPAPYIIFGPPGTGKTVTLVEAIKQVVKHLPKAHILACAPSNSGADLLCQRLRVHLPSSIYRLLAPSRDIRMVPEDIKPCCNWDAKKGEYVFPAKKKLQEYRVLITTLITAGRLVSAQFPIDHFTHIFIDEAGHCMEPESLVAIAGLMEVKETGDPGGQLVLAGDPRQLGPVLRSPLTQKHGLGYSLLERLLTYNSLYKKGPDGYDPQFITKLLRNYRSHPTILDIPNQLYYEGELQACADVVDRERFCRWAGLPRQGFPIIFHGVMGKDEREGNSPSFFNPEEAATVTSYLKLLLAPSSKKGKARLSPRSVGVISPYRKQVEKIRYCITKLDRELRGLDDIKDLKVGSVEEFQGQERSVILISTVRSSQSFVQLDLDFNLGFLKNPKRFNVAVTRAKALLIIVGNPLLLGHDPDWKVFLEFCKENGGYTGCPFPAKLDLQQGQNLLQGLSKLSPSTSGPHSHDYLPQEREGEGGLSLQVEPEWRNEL

Protein sequences, listed by entry. Tags and fused reporters are not part of them. Lines headed by an entry give the natural chain unless they say otherwise; changes in a name come on top. Chains listed by the source or under a name are the forms on record and can include a tag or linker. Residues count along the entry.
UniProt Q9UN81: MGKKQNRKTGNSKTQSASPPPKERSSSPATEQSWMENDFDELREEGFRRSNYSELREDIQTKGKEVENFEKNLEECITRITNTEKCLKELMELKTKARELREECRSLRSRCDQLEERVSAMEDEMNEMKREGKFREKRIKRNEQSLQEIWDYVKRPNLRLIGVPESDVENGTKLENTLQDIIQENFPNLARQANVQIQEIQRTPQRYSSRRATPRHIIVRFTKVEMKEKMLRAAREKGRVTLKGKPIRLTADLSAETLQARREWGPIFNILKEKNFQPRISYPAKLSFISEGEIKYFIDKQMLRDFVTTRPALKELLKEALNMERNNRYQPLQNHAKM
UniProt Q7Z2W4: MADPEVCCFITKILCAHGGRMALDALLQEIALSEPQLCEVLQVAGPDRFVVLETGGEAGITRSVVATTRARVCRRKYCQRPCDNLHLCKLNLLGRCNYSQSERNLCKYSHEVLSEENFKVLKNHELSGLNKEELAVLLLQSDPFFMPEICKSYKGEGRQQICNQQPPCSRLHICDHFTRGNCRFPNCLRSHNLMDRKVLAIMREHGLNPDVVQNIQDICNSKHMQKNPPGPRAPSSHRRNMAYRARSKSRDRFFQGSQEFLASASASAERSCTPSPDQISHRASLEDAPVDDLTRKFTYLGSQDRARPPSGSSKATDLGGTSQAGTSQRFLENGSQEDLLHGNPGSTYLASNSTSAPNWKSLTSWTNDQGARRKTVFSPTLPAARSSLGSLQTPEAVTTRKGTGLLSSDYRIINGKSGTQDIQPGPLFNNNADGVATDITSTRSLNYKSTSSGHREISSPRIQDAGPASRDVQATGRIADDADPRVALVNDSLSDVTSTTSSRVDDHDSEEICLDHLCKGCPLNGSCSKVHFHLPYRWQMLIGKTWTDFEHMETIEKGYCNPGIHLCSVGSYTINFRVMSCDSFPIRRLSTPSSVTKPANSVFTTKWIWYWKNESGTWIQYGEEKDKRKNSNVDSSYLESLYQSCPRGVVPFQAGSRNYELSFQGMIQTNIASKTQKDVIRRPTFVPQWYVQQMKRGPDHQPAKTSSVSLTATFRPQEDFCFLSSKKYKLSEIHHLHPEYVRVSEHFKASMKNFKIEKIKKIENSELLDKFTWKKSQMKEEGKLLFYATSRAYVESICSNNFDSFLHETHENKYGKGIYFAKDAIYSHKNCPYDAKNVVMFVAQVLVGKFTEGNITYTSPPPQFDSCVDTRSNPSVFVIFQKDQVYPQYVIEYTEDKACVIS
HA-ZAP 1–256: residues 1-256 of Q7Z2W4
V5-TEV-ZAP-S (Q7Z2W4-2, form named): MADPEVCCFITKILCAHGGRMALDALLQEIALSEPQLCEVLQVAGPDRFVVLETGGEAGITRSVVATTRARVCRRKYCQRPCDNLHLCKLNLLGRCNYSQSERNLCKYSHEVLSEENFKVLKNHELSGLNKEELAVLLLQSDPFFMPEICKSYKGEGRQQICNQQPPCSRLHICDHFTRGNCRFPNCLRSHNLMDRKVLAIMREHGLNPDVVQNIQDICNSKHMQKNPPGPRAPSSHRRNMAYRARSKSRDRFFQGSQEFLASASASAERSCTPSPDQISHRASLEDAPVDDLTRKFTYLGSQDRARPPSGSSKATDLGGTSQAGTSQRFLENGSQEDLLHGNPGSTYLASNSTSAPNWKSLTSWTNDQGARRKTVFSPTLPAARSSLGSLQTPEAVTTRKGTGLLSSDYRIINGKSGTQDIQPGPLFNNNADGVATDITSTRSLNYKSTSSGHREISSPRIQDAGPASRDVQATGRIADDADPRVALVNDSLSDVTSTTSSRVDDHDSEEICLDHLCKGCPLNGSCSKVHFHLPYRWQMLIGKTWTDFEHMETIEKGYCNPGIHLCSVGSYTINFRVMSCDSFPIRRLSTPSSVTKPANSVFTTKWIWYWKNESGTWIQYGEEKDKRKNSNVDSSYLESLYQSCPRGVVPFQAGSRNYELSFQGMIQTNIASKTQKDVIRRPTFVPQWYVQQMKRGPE
UniProt Q96AZ6: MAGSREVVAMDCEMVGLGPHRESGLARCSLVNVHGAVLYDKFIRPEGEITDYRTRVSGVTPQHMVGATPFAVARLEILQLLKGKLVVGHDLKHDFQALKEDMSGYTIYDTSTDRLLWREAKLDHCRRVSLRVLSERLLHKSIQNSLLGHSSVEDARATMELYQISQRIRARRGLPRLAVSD
UniProt Q92526: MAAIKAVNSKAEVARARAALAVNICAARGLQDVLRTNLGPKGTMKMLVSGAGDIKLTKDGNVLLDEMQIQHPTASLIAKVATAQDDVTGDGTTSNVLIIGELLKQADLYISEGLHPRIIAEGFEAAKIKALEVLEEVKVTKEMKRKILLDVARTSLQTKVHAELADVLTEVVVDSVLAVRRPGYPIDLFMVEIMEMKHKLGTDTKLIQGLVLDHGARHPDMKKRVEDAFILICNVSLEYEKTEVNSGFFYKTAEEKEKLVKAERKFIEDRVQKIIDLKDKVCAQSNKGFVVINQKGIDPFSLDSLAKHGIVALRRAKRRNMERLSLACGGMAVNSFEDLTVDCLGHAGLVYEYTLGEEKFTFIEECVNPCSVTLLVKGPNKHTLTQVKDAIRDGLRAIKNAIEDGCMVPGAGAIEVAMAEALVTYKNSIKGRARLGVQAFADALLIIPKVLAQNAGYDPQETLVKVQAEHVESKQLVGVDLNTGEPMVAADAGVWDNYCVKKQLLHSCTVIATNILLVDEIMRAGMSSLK
UniProt P30153: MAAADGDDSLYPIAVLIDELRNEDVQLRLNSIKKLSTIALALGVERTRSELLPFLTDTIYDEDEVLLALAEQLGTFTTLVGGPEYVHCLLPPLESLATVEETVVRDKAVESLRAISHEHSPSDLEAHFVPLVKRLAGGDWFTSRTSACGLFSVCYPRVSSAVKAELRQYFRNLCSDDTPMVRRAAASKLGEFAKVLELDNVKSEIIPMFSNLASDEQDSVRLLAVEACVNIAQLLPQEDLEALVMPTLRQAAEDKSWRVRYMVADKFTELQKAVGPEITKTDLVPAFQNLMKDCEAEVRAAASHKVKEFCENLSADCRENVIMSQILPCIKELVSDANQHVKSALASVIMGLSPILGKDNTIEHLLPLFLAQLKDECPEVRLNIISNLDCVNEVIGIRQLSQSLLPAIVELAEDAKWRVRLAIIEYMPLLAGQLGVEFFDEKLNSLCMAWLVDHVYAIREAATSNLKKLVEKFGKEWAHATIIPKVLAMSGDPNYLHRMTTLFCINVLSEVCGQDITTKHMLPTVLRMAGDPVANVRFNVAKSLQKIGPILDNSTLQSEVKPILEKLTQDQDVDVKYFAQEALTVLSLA
UniProt P50990: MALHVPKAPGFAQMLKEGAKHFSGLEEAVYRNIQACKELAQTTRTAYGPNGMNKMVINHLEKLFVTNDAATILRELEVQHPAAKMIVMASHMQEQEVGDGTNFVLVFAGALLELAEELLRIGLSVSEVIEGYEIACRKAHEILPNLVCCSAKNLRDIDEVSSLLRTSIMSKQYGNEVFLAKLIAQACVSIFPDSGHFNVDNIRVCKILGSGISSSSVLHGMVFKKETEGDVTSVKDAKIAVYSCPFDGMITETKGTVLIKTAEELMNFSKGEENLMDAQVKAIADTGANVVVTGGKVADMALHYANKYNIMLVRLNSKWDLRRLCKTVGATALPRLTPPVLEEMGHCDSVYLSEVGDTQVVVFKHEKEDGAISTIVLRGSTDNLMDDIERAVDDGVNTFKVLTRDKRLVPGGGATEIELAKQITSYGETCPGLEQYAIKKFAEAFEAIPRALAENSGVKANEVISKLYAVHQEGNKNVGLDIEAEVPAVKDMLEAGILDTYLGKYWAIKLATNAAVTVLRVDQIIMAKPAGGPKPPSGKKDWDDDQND
USP9X-V5 (pDest51-USP9X-V5) (Q93008-3, form named): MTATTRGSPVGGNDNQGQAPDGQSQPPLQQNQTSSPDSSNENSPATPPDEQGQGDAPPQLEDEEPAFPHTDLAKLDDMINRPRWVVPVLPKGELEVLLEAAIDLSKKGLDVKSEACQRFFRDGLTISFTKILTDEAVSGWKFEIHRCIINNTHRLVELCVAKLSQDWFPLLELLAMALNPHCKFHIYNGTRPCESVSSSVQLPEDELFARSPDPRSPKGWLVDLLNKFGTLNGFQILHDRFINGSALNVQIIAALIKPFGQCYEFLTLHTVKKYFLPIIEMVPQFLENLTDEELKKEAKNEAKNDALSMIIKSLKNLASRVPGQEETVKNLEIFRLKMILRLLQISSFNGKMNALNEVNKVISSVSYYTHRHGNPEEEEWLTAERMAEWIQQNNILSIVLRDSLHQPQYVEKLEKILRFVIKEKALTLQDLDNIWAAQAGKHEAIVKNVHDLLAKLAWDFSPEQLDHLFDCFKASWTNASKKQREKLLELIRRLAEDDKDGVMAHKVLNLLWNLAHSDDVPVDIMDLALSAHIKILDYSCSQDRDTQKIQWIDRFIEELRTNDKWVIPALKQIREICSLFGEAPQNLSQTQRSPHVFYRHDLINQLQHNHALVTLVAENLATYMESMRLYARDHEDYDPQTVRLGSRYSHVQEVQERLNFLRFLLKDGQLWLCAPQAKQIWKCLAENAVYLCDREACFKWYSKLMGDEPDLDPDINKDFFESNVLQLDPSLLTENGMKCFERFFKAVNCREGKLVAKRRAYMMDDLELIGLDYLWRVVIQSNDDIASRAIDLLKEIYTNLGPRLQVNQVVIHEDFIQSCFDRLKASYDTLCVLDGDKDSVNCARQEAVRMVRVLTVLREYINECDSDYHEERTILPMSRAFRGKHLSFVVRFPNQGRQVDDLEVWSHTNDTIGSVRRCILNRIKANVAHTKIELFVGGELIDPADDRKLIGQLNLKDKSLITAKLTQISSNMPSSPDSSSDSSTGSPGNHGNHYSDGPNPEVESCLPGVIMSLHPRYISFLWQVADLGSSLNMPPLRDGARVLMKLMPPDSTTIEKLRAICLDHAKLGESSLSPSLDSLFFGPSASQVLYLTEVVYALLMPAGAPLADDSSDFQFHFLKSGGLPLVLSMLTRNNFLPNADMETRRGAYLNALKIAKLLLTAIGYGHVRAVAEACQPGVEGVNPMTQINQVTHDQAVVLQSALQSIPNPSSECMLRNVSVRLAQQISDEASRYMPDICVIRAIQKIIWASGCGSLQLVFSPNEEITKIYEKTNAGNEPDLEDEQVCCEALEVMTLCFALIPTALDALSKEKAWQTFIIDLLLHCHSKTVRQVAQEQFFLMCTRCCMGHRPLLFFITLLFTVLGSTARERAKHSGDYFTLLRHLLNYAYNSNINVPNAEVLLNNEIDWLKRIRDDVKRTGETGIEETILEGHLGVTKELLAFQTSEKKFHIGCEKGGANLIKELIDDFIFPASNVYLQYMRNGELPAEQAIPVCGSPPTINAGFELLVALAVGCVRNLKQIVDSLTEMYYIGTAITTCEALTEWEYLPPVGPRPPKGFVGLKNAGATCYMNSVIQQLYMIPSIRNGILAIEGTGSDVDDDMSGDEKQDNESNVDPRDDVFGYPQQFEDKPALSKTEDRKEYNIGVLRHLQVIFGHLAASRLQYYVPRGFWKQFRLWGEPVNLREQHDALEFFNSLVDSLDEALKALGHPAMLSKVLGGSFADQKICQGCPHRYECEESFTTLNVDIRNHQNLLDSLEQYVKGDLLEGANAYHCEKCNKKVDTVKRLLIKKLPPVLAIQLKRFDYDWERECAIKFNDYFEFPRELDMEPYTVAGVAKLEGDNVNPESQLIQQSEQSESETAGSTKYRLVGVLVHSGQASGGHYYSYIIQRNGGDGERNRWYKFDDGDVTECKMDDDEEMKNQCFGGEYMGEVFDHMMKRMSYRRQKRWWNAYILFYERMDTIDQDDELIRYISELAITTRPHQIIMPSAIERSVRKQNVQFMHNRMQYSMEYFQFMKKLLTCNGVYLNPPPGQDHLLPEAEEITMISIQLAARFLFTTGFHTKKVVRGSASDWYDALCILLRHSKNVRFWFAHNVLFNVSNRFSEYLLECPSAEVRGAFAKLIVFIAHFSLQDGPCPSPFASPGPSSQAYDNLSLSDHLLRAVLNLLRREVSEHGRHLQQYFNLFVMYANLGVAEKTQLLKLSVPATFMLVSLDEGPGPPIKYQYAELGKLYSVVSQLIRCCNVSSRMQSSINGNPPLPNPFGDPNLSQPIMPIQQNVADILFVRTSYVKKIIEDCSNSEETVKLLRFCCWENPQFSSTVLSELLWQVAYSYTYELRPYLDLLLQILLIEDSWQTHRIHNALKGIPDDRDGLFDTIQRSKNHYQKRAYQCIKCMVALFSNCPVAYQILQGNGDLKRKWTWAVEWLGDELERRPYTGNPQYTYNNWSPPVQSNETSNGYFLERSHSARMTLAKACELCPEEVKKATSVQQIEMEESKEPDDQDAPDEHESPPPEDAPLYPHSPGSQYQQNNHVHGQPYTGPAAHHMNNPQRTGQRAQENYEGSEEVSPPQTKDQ
UniProt Q9NQT4: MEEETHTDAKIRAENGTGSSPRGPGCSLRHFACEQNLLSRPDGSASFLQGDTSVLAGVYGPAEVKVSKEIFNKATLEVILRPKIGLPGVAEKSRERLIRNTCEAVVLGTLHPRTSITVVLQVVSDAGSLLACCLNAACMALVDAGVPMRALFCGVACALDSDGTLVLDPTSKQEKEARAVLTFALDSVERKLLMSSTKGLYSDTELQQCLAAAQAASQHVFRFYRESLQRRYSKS

[6] = molecular target: T1, FLAG-tagged MOV10 (human); assay: co-IP; HA-ZAP-L with FLAG-tagged MOV10; IP on α-FLAG agarose, also in the presence of RNase

Row | binding [3] | Substance | also measured
1 |  | V5-TEV-ZAP-S (from UniProt Q7Z2W4-2 1-699) | binding [1]: binds; binding [2]: no binding (condition: with 50 μg/ml RNase)
2 |  | endogenous full-length ZAP (293T cells) (from UniProt Q7Z2W4-1 1-902) | binding [1]: binds; binding [2]: no binding (condition: with RNase)
3 | binds | Myc-USP7 (from UniProt Q93009-1 1-1102) | 
4 | binds weakly | V5-TEV-ISG20 (from UniProt Q96AZ6 1-181) | 
5 |  | untagged ORF1p expressed from construct pc-L1-RP (from UniProt Q9UN81 1-338) | binding [4]: binds
6 |  | HA-ZAP 1–256 (from UniProt Q7Z2W4-1 1-256) (domain or fragment) | binding [1]: no binding; binding [5]: no binding
7 | no binding | V5-tagged CCT6B (from UniProt Q92526 1-530) | 
8 |  | HA-ZAP-L (from UniProt Q7Z2W4-1 1-902) | binding [1]: binds; binding [2]: no binding (condition: with RNase); binding [6]: binds
9 | binds | V5-TEV-tagged PPP2R1A (from UniProt P30153 1-589) | 
10 | no binding | V5-tagged CCT8 (from UniProt P50990 1-548) | 
11 | binds | V5-TEV-tagged TRIM25 (from UniProt Q14258 1-630) | 
12 | binds | pCDNA3.1-V5-His full-length PARP1 (from UniProt P09874 1-1014) | 
13 | binds | USP9X-V5 (pDest51-USP9X-V5) (from UniProt Q93008-3 1-2570) | 
14 | binds | V5-TEV-tagged PPP2CA (from UniProt P67775-1 1-309) | 
15 | binds weakly | V5-tagged EXOSC5 (from UniProt Q9NQT4 1-235) | 

Reference: PMC4441479
